From the supplement of paper PMC8728848
This is one part of the list.

Legend:
Assay in all cases: glycan array binding signal (z-score within array); higher = stronger binding
Conditions in all cases: glycan notation: IUPAC condensed, linker removed
Fuc(a1-2)Gal = biological target: Fuc(a1-2)Gal
Procedure, shortened: (§1)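 Glycan array binding is given as a within-array Z-score, which can be read as non-binding when negative. The arrays, 3228 of them, came from the Consortium for Functional Glycomics database and were retained only where the protein sequence was available. Z-scores were averaged across arrays of the same protein sequence at different concentrations or buffers and across linkers.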

Fuc(a1-2)Gal(b1-3)GalNAc = biological target: Fuc(a1-2)Gal(b1-3)GalNAc
Procedure, shortened: as §1

[1] = biological target: Fuc(a1-2)Gal(b1-3)GalNAc(b1-3)Gal
Procedure, shortened: as §1

[2] = biological target: Fuc(a1-2)Gal(b1-3)GalNAc(b1-3)Gal(a1-4)Gal(b1-4)Glc
Procedure, shortened: as §1

[3] = biological target: Fuc(a1-2)Gal(b1-3)GalNAc(b1-4)[Neu5Ac(a2-3)]Gal(b1-4)Glc
Procedure, shortened: as §1

Fuc(a1-2)Gal(b1-3)GlcNAc = biological target: Fuc(a1-2)Gal(b1-3)GlcNAc
Procedure, shortened: as §1

[4] = biological target: Fuc(a1-2)Gal(b1-3)GlcNAc(b1-3)Gal(b1-4)Glc
Procedure, shortened: as §1

[5] = biological target: Fuc(a1-2)Gal(b1-3)[Fuc(a1-4)]GlcNAc
Procedure, shortened: as §1

Fuc(a1-2)Gal(b1-4)Glc = biological target: Fuc(a1-2)Gal(b1-4)Glc
Procedure, shortened: as §1

Fuc(a1-2)Gal(b1-4)Glc6S = biological target: Fuc(a1-2)Gal(b1-4)Glc6S
Procedure, shortened: as §1

Fuc(a1-2)Gal(b1-4)GlcNAc = biological target: Fuc(a1-2)Gal(b1-4)GlcNAc
Procedure, shortened: as §1

[6] = biological target: Fuc(a1-2)Gal(b1-4)GlcNAc(b1-3)Gal(b1-4)GlcNAc
Procedure, shortened: as §1

[7] = biological target: Fuc(a1-2)Gal(b1-4)GlcNAc(b1-3)Gal(b1-4)GlcNAc(b1-3)Gal(b1-4)GlcNAc
Procedure, shortened: as §1

[8] = biological target: Fuc(a1-2)Gal(b1-4)GlcNAc6S
Procedure, shortened: as §1

[9] = biological target: Fuc(a1-2)Gal(b1-4)[Fuc(a1-3)]GlcNAc
Procedure, shortened: as §1

[10] = biological target: Fuc(a1-2)Gal(b1-4)[Fuc(a1-3)]GlcNAc(b1-3)Gal(b1-4)[Fuc(a1-3)]GlcNAc
Procedure, shortened: as §1

[11] = biological target: Fuc(a1-2)Gal(b1-4)[Fuc(a1-3)]GlcNAc(b1-3)Gal(b1-4)[Fuc(a1-3)]GlcNAc(b1-3)Gal(b1-4)[Fuc(a1-3)]GlcNAc
Procedure, shortened: as §1

Fuc(a1-2)Gal6S(b1-4)Glc = biological target: Fuc(a1-2)Gal6S(b1-4)Glc
Procedure, shortened: as §1

[12] = biological target: Fuc(a1-2)Gal6S(b1-4)Glc6S
Procedure, shortened: as §1

[13] = biological target: Fuc(a1-2)Gal6S(b1-4)GlcNAc
Procedure, shortened: as §1

Fuc(a1-2)[Gal(a1-3)]Gal = biological target: Fuc(a1-2)[Gal(a1-3)]Gal
Procedure, shortened: as §1

[14] = biological target: Fuc(a1-2)[Gal(a1-3)]Gal(b1-3)GlcNAc
Procedure, shortened: as §1

[15] = biological target: Fuc(a1-2)[Gal(a1-3)]Gal(b1-4)Glc
Procedure, shortened: as §1

[16] = biological target: Fuc(a1-2)[Gal(a1-3)]Gal(b1-4)GlcNAc
Procedure, shortened: as §1

[17] = biological target: Fuc(a1-2)[Gal(a1-3)]Gal(b1-4)[Fuc(a1-3)]GlcNAc
Procedure, shortened: as §1

[18] = biological target: Fuc(a1-2)[Gal(a1-4)]Gal(b1-4)GlcNAc
Procedure, shortened: as §1

[19] = biological target: Fuc(a1-2)[GalNAc(a1-3)]Gal
Procedure, shortened: as §1

[20] = biological target: Fuc(a1-2)[GalNAc(a1-3)]Gal(b1-3)GlcNAc
Procedure, shortened: as §1

[21] = biological target: Fuc(a1-2)[GalNAc(a1-3)]Gal(b1-4)Glc
Procedure, shortened: as §1

[22] = biological target: Fuc(a1-2)[GalNAc(a1-3)]Gal(b1-4)GlcNAc
Procedure, shortened: as §1

[23] = biological target: Fuc(a1-2)[GalNAc(a1-3)]Gal(b1-4)[Fuc(a1-3)]GlcNAc
Procedure, shortened: as §1

[24] = biological target: Fuc(a1-2)[GalNAc(a1-4)]Gal(b1-4)GlcNAc
Procedure, shortened: as §1

[25] = biological target: Fuc(a1-2)[GalNAc(b1-3)]Gal
Procedure, shortened: as §1

Fuc(a1-3)GlcNAc = biological target: Fuc(a1-3)GlcNAc
Procedure, shortened: as §1

[26] = biological target: Fuc(a1-3)[Gal(b1-4)]Glc6S
Procedure, shortened: as §1

[27] = biological target: Fuc(a1-3)[Gal(b1-4)]GlcNAc
Procedure, shortened: as §1

[28] = biological target: Fuc(a1-3)[Gal(b1-4)]GlcNAc(b1-2)Man(a1-3)[Fuc(a1-3)[Gal(b1-4)]GlcNAc(b1-2)Man(a1-6)]Man(b1-4)GlcNAc(b1-4)GlcNAc
Procedure, shortened: as §1

[29] = biological target: Fuc(a1-3)[Gal(b1-4)]GlcNAc(b1-2)Man(a1-6)[Gal(b1-4)GlcNAc(b1-2)Man(a1-3)]Man(b1-4)GlcNAc(b1-4)GlcNAc
Procedure, shortened: as §1

[30] = biological target: Fuc(a1-3)[Gal(b1-4)]GlcNAc(b1-3)Gal(b1-3)[Fuc(a1-4)]GlcNAc
Procedure, shortened: as §1

[31] = biological target: Fuc(a1-3)[Gal(b1-4)]GlcNAc(b1-4)Gal(b1-4)[Fuc(a1-3)]GlcNAc
Procedure, shortened: as §1

[32] = biological target: Fuc(a1-3)[Gal(b1-4)]GlcNAc(b1-4)Gal(b1-4)[Fuc(a1-3)]GlcNAc(b1-4)Gal(b1-4)[Fuc(a1-3)]GlcNAc
Procedure, shortened: as §1

[33] = biological target: Fuc(a1-3)[Gal(b1-4)]GlcNAc6S
Procedure, shortened: as §1

[34] = biological target: Fuc(a1-3)[Gal3S(b1-4)]Glc6S
Procedure, shortened: as §1

[35] = biological target: Fuc(a1-3)[Gal3S(b1-4)]GlcNAc
Procedure, shortened: as §1

[36] = biological target: Fuc(a1-3)[Gal3S(b1-4)]GlcNAc6S
Procedure, shortened: as §1

B1: Surfactant Protein D (rat); Neck + Carbohydrate Recognition Domain (NCRD) (Rattus norvegicus) (protein)
chain: MLLFLLSALVLLTQPLGYLEAEMKTYSHRTMPSACTLVMCSSVESGLPGRDGRDGREGPRGEKGDPGLPGAAGQAGMPGQAGPVGPKGDNGSVGEPGPKGDTGPSGPPGPPGVPGPAGREGALGKQGNIGPQGKPGPKGEAGPKGEVGAPGMQGSAGARGAGPKGERGVPGERGVPGNTGAAGSAGAMGPQGSPGARGPPGLKGDKGIPGDKGAKGESGLPDVASLRQQVEALQGQVQHLQAAFSQYKKVELFPNGQSVGEKIFKTAGFVKPFTEAQLLCTQAGGQLASPRSAAENAALQQLVVAKNEAAFLSMTDSKTEGKFTYPTGESLVYSNWAPGEPNDDGGSEDCVEIFTNGKWNDRACGEKRLVVCEF
Fuc(a1-2)Gal
  glycan array binding signal (z-score): -0.204
Fuc(a1-2)Gal(b1-3)GalNAc
  glycan array binding signal (z-score): -0.177
[1]
  glycan array binding signal (z-score): -0.118
[2]
  glycan array binding signal (z-score): -0.181
[3]
  glycan array binding signal (z-score): -0.142
Fuc(a1-2)Gal(b1-3)GlcNAc
  glycan array binding signal (z-score): -0.13
[4]
  glycan array binding signal (z-score): -0.215
[5]
  glycan array binding signal (z-score): -0.177
Fuc(a1-2)Gal(b1-4)Glc
  glycan array binding signal (z-score): -0.073
Fuc(a1-2)Gal(b1-4)Glc6S
  glycan array binding signal (z-score): -0.204
Fuc(a1-2)Gal(b1-4)GlcNAc
  glycan array binding signal (z-score): -0.173
[6]
  glycan array binding signal (z-score): -0.183
[7]
  glycan array binding signal (z-score): -0.149
[8]
  glycan array binding signal (z-score): 0.018
[9]
  glycan array binding signal (z-score): -0.203
[10]
  glycan array binding signal (z-score): -0.151
[11]
  glycan array binding signal (z-score): -0.129
Fuc(a1-2)Gal6S(b1-4)Glc
  glycan array binding signal (z-score): -0.243
[12]
  glycan array binding signal (z-score): -0.148
[13]
  glycan array binding signal (z-score): -0.067
Fuc(a1-2)[Gal(a1-3)]Gal
  glycan array binding signal (z-score): -0.22
[14]
  glycan array binding signal (z-score): -0.19
[15]
  glycan array binding signal (z-score): -0.234
[16]
  glycan array binding signal (z-score): -0.206
[17]
  glycan array binding signal (z-score): -0.205
[18]
  glycan array binding signal (z-score): -0.095
[19]
  glycan array binding signal (z-score): -0.221
[20]
  glycan array binding signal (z-score): -0.109
[21]
  glycan array binding signal (z-score): -0.212
[22]
  glycan array binding signal (z-score): -0.184
[23]
  glycan array binding signal (z-score): -0.192
[24]
  glycan array binding signal (z-score): -0.26
[25]
  glycan array binding signal (z-score): -0.245
Fuc(a1-3)GlcNAc
  glycan array binding signal (z-score): -0.127
[26]
  glycan array binding signal (z-score): -0.019
[27]
  glycan array binding signal (z-score): -0.113
[28]
  glycan array binding signal (z-score): -0.166
[29]
  glycan array binding signal (z-score): -0.165
[30]
  glycan array binding signal (z-score): -0.187
[31]
  glycan array binding signal (z-score): -0.139
[32]
  glycan array binding signal (z-score): -0.179
[33]
  glycan array binding signal (z-score): 0.145
[34]
  glycan array binding signal (z-score): -0.006
[35]
  glycan array binding signal (z-score): 0.026
[36]
  glycan array binding signal (z-score): 0.166
